The other results are listed elsewhere or left out.
Assays:
Test in all cases: glycan array binding signal (z-score within array); higher = stronger binding
Details in all cases: glycan notation: IUPAC condensed, linker removed
[1] = target: Gal(b1-4)GalNAc(b1-3)[Fuc(a1-2)]Gal(b1-4)GlcNAc
Summary of the method: (§1)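 The binding signal is a Z-score computed within each array. Data were drawn from 3228 arrays in the Consortium for Functional Glycomics database, restricted to those with a known protein sequence. Scores were averaged over arrays of the same protein sequence at different concentrations or buffers, and over linkers, and negative values can be taken as non-binding.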

Gal(b1-4)Glc = target: Gal(b1-4)Glc
Summary of the method: as §1

Gal(b1-4)Glc6S = target: Gal(b1-4)Glc6S
Summary of the method: as §1

Gal(b1-4)GlcNAc = target: Gal(b1-4)GlcNAc
Summary of the method: as §1

[2] = target: Gal(b1-4)GlcNAc(a1-6)Gal(b1-4)GlcNAc
Summary of the method: as §1

Gal(b1-4)GlcNAc(b1-2)Man = target: Gal(b1-4)GlcNAc(b1-2)Man
Summary of the method: as §1

[3] = target: Gal(b1-4)GlcNAc(b1-2)Man(a1-3)Man(b1-4)GlcNAc(b1-4)GlcNAc
Summary of the method: as §1

[4] = target: Gal(b1-4)GlcNAc(b1-2)Man(a1-3)[Gal(b1-4)GlcNAc(b1-2)Man(a1-6)]Man(b1-4)GlcNAc(b1-4)GlcNAc
Summary of the method: as §1

[5] = target: Gal(b1-4)GlcNAc(b1-2)Man(a1-3)[Gal(b1-4)GlcNAc(b1-2)Man(a1-6)]Man(b1-4)GlcNAc(b1-4)[Fuc(a1-6)]GlcNAc
Summary of the method: as §1

[6] = target: Gal(b1-4)GlcNAc(b1-2)Man(a1-3)[Gal(b1-4)GlcNAc(b1-2)Man(a1-6)][Gal(b1-4)GlcNAc(b1-4)]Man(b1-4)GlcNAc(b1-4)[Fuc(a1-6)]GlcNAc
Summary of the method: as §1

[7] = target: Gal(b1-4)GlcNAc(b1-2)Man(a1-3)[Gal(b1-4)GlcNAc(b1-2)Man(a1-6)][GlcNAc(b1-4)]Man(b1-4)GlcNAc(b1-4)[Fuc(a1-6)]GlcNAc
Summary of the method: as §1

[8] = target: Gal(b1-4)GlcNAc(b1-2)Man(a1-3)[GlcNAc(b1-2)Man(a1-6)]Man(b1-4)GlcNAc(b1-4)GlcNAc
Summary of the method: as §1

[9] = target: Gal(b1-4)GlcNAc(b1-2)Man(a1-3)[GlcNAc(b1-4)][Gal(b1-4)GlcNAc(b1-2)Man(a1-6)]Man(b1-4)GlcNAc(b1-4)GlcNAc
Summary of the method: as §1

[10] = target: Gal(b1-4)GlcNAc(b1-2)Man(a1-3)[Man(a1-6)]Man(b1-4)GlcNAc(b1-4)GlcNAc
Summary of the method: as §1

[11] = target: Gal(b1-4)GlcNAc(b1-2)Man(a1-6)Man(b1-4)GlcNAc(b1-4)GlcNAc
Summary of the method: as §1

[12] = target: Gal(b1-4)GlcNAc(b1-2)Man(a1-6)[GlcNAc(b1-2)Man(a1-3)]Man(b1-4)GlcNAc(b1-4)GlcNAc
Summary of the method: as §1

[13] = target: Gal(b1-4)GlcNAc(b1-2)Man(a1-6)[Man(a1-3)]Man(b1-4)GlcNAc(b1-4)GlcNAc
Summary of the method: as §1

[14] = target: Gal(b1-4)GlcNAc(b1-2)[Gal(b1-4)GlcNAc(b1-4)]Man(a1-3)[Gal(b1-4)GlcNAc(b1-2)Man(a1-6)]Man(b1-4)GlcNAc(b1-4)GlcNAc
Summary of the method: as §1

[15] = target: Gal(b1-4)GlcNAc(b1-2)[Gal(b1-4)GlcNAc(b1-4)]Man(a1-3)[Gal(b1-4)GlcNAc(b1-2)[Gal(b1-4)GlcNAc(b1-6)]Man(a1-6)]Man(b1-4)GlcNAc(b1-4)GlcNAc
Summary of the method: as §1

[16] = target: Gal(b1-4)GlcNAc(b1-2)[Gal(b1-4)GlcNAc(b1-4)]Man(a1-3)[GlcNAc(b1-4)][Gal(b1-4)GlcNAc(b1-2)Man(a1-6)]Man(b1-4)GlcNAc(b1-4)GlcNAc
Summary of the method: as §1

[17] = target: Gal(b1-4)GlcNAc(b1-2)[Gal(b1-4)GlcNAc(b1-4)]Man(a1-3)[GlcNAc(b1-4)][Gal(b1-4)GlcNAc(b1-2)[Gal(b1-4)GlcNAc(b1-6)]Man(a1-6)]Man(b1-4)GlcNAc(b1-4)GlcNAc
Summary of the method: as §1

[18] = target: Gal(b1-4)GlcNAc(b1-2)[Gal(b1-4)GlcNAc(b1-6)]Man(a1-6)[Gal(b1-4)GlcNAc(b1-2)Man(a1-3)]Man(b1-4)GlcNAc(b1-4)GlcNAc
Summary of the method: as §1

B1: BTL (Bryothamnion triquetrum) (protein)
chain: ADPICGSSGYSCTTPAILTPKSPGSFPSGYSKVIVTGVGGSYSVYIHRPDGFKVYKASEGGCASFGSYSGGGNSEVGKYGSGGTVVAVACK
B1 was tested, and the “glycan array binding signal (z-score)” value [1] was -0.293, the “glycan array binding signal (z-score)” value (Gal(b1-4)Glc) was -0.249 and the “glycan array binding signal (z-score)” value (Gal(b1-4)Glc6S) was -0.256. For the same binder, the “glycan array binding signal (z-score)” value (Gal(b1-4)GlcNAc) was -0.206, the “glycan array binding signal (z-score)” value [2] was -0.286 and the “glycan array binding signal (z-score)” value (Gal(b1-4)GlcNAc(b1-2)Man) was -0.186. The “glycan array binding signal (z-score)” value [3] was -0.192, the “glycan array binding signal (z-score)” value [4] was -0.161 and the “glycan array binding signal (z-score)” value [5] was 4.92. The “glycan array binding signal (z-score)” value [6] was 0.352, the “glycan array binding signal (z-score)” value [7] was 0.733 and the “glycan array binding signal (z-score)” value [8] was -0.236. The “glycan array binding signal (z-score)” value [9] was -0.195, the “glycan array binding signal (z-score)” value [10] was -0.231 and the “glycan array binding signal (z-score)” value [11] was -0.192. For the same binder, the “glycan array binding signal (z-score)” value [12] was -0.244, the “glycan array binding signal (z-score)” value [13] was -0.185 and the “glycan array binding signal (z-score)” value [14] was -0.205. For the same binder, the “glycan array binding signal (z-score)” value [15] was -0.279, the “glycan array binding signal (z-score)” value [16] was -0.24 and the “glycan array binding signal (z-score)” value [17] was -0.252. For the same binder, the “glycan array binding signal (z-score)” value [18] was -0.127.

Reference: the supplement of paper PMC8728848
